Reference: the RNAGym collection of RNA variant scans (doi:10.1093/nar/gkz1192)
The source gives no read counts; variants with many changes may rest on few reads.

B1: CPEB3 Ribozyme (parent)
chain: UAACAGGGGGCCACAGCAGAAGCGUUCACGUCGCAGCCCCUGUCAGAUUCUGGUGAAUCUGCGAAUUCUGCUGUAUAUCUC

Variants of: B1
Assay: self-cleavage, relative activity (ratio to wild type); higher = more cleavage; in vitro, sequencing
Procedure, shortened: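 CPEB3 self-cleaving ribozyme mutant libraries were made by rounds of error-prone PCR, barcoded, and transcribed in vitro with T7 RNA polymerase for 5 hours at 37°C. Cleavage occurred during transcription and a 15 min DNase I step before EDTA stop. RNAs were reverse transcribed with template switching and Illumina-sequenced, with DNA sequencing mapping barcodes to variants. Relative activity is the variant's cleaved/total read fraction divided by wild type's (minimum 5 reads), averaged across three batches.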

Row | Variant | self-cleavage
1 | C4A A21C U43C U72G G73A U78C | 0.14
2 | C4U G19C A47G A64G | 0.42
3 | C4U U26A A28G C44U U69C U74C U76A | 0.08
4 | C4U A18C A20C U41G U43C A64U | 0.05
5 | C4U U26A U31A | 0.79
6 | A3U U41A G55A | 0.14
7 | C4G A21G U31G U41A U51A U60A U67C | 0.07
8 | A3U U26C A28G U58C U72A | 0.08
9 | C4U A5G G6A | 0.56
10 | C4U G16U U41C A57G U72C | 0.62
11 | C4U A57U U74C U76A | 1.12
12 | C4U G9A G52U A57G A75G | 0.14
13 | C4U A13G A28G A35U | 0.28
14 | C4A G33A A35U C37A U58G U66C | 0.14
15 | A3U U43A U74C | 1.25
16 | C4A A65G U80C | 0.97
17 | C4G A18G C59U U60G U80C | 0.31
18 | C4U A18C A21G C29A U80A | 0.6
19 | C4U A13U C29G C40U A45G U60C U80A | 0.17
20 | C4A A18G U58C U80C | 0.3
21 | C4U A20G A35G G46C U60C | 0.15
22 | C4U G7A A65G | 0.08
23 | C4U A5G U43C | 0.55
24 | A3U U26C U41C | 0.65

Row | Variant | self-cleavage
25 | C4U A15G A57U U78C | 0.5
26 | C4U G10U C34A U43C U60A U72A | 0.09
27 | C4U U25C U69C | 0.43
28 | A3U U26C A35U A65G C68A | 0.08
29 | C4U A28U U41C A56G C71U U78C | 0.5
30 | A3U U25C G33A | 0.48
31 | C4U G30A A45G | 0.47
32 | C4G A21G C29A | 0.53
33 | C4U G33C U48A | 0.31
34 | A3U U41A U69C | 0.07
35 | A3U U26C U49C | 0.61
36 | C4U U31C U54A U76A | 1.14
37 | A3U U69C U76A | 0.83
38 | A3U U43C U74G U78A | 1.03
39 | C4U A13G U69A | 0.82
40 | C4U G9U A20G U54A | 0.15
41 | A3U U26A U41C A45G U48C U60A U67C | 0.21
42 | A3U U25C A35G | 0.38
43 | A3U U26C U58C | 0.48
44 | C4U A18U A21G A56U U66C | 0.17
45 | A3U U25C U31A G52A A56U | 0.1
46 | C4G C29U U80C | 0.71
47 | A3U U43C A47G U48A U78C | 0.18
48 | C4G C23U U31C | 0.35

Row | Variant | self-cleavage
49 | C4U U31A U60A A77G | 0.31
50 | A3U U25C A35G A64C | 0.19
51 | C4U A21G U43A U72G | 0.5
52 | C4U A20G A35G A45G A56G G61U | 0.5
53 | C4U A5G U66C | 0.42
54 | C4G A13G A45U U67A | 0.22
55 | C4U C29A U31C U51A U69A | 0.21
56 | C4U G7A C62U | 0.33
57 | C4A A21G A47G A64U | 0.39
58 | C4U A13U A21G U69C A75G U76A | 0.18
59 | C4U G9A U41C | 0.56
60 | C4U G24A A57G | 0.33
61 | C4U A18G G63A U80C | 0.82
62 | C4G C12U C44A A45U U54A U74A | 0.84
63 | C4U U41A U74A | 0.55
64 | C4A A20G C32U U43C U49A U80C | 0.29
65 | C4U A15G U26C | 0.89
66 | C4G G10A C12U A15G U72C A75U | 1.13
67 | C4A A20G A56G U69C U72C U78C | 0.18
68 | C4G A5G G10A U80G | 0.28
69 | C4G A18G U60A U69C | 1.02
70 | A3U U26C A57G | 0.28
71 | C4U U41C U54C U58A U80A | 0.25
72 | C4G A18G A56G | 0.73

Row | Variant | self-cleavage
73 | A3U U48C U49C U74C | 0.32
74 | C4U U25C U60A U69A | 0.16
75 | C4A C40U U74C | 1.14
76 | C4A A57C U78C | 0.8
77 | C4G A13U A28G | 1.1
78 | C4U C17U U67C | 0.36
79 | C4A U58C U78G | 1.05
80 | A3U U43C G53A | 0.98
81 | C4A A20U U51C A56G | 0.32
82 | A3U U25C U26C A35U U48C | 0.09
83 | C4U C12A C40U U72C | 1.22
84 | C4U A18U G70C | 0.3
85 | C4U A57G C81U | 1.21
86 | C4A U26A G36A U43C U69A | 0.08
87 | C4U A45U A65G U69C A75G | 0.23
88 | C4A G42A U78A | 0.2
89 | A3U U51C C79U | 1.22
90 | A3U U43A G46C A57G | 0.47
91 | C4U A5G U41C U51C C68A | 0.45
92 | C4U A28G A77G U80C | 0.8
93 | C4A C27G U43A U58C | 0.3
94 | C4U A21G U51C | 1.03
95 | A3U U48C G53U U54A G61C | 0.43
96 | C4U G6A A21U A47G U76A | 0.16

Row | Variant | self-cleavage
97 | C4U A28G A47G | 0.78
98 | C4U U41C U54C A65C | 0.16
99 | C4U A20U A35G A45U U78C | 0.36
100 | C4G G8C U67C | 0.04
101 | C4G A20G U51C | 0.86
102 | C4A A18G G55C A64G U74A | 0.97
103 | C4U G6A A13G C14U U72C | 0.28
104 | C4U A5G A18G A45G U58G U66A U72C | 0.16
105 | C4U A20G U25A A35G U78C | 0.17
106 | C4A A21G G73A | 1.12
107 | C4G A21G U25C U26C | 0.06
108 | C4U U26C A35U U48C | 0.24
109 | C4G C40U U43C A45U A47U | 0.37
110 | C4G A5U A20G G24A A35G A77G | 0.1
111 | A3U U25C A35G U69G U72G | 0.13
112 | A3U U60A U80C | 0.54
113 | A3U U48C A64G U72A | 0.27
114 | C4G A13G A45G | 0.3
115 | C4U U26C U74C | 0.87
116 | C4U U26G U67C | 0.15
117 | C4U A15U C29U U69A | 0.17
118 | C4U U26C U41C U76C C81U | 0.87
119 | C4G A5G A21G A28G U78A | 0.66
120 | A3U U69A A77G | 1.06

Row | Variant | self-cleavage
121 | A3U U26A G33U C50G U69A U80A | 0.07
122 | A3U U25C U49C U69A | 0.22
123 | C4U A28U U67C U69C U78C | 0.22
124 | C4A C27U U72G U80C | 0.42
125 | C4U G8A U41C U66C G70U A77G U78C | 0.05
126 | C4A A13U U43C U58C A64G A65G A77G | 0.18
127 | C4U C32A G61A U80C | 0.23
128 | C4U G9A A20U A56U U69C | 0.07
129 | C4G A13U G16U A28G | 0.28
130 | C4U A5G C11A A64U U69C U74A | 0.22
131 | C4U U26C A56G U74C | 0.55
132 | C4U A21G A28G G36C U43C U72C | 0.09
133 | C4U A13U A21G G36A | 0.25
134 | C4U C12A A18G U41A U67A | 0.3
135 | C4U G22A U78C | 0.12
136 | C4U G8C A45G U67G A75U U78C | 0.19
137 | A3U U31C A45G U78A | 0.41
138 | C4A C37A U41C U51C A57C U72A | 0.09
139 | C4G A15U U74A | 1.21
140 | C4U U31C U51A A64U U78A | 0.36
141 | C4U A21U U25C | 0.12
142 | A3U U25C A35G U51C | 0.26
143 | C4A A15G A47U U60C U76A | 0.09
144 | C4G C23G A28G | 0.25

Row | Variant | self-cleavage
145 | A3U U26A G33C U41C U58C | 0.09
146 | A3U U25A C40A | 0.66
147 | C4G A20U A65G | 0.26
148 | C4U G33A A45G U49C | 0.3
149 | A3U U48A A65G U69G U72A | 0.08
150 | A3U U41C A64U | 0.27
151 | C4U A13U A15G G16A U26C | 0.08
152 | A3U U58C A64G | 0.56
153 | C4G A35U U60A U80A | 0.62
154 | C4U C23U A35U G55A U66C | 0.12
155 | C4G C17G A45G C59A U72C | 0.04
156 | A3U U66C U69C | 0.19
157 | A3U U41A G46U U58A | 0.16
158 | C4U A21G U80A | 1.18
159 | A3U U51C G53A | 1.17
160 | C4U A28U U60A U67C | 0.34
161 | A3U U67C U78C | 0.33
162 | A3U U49C U54C | 0.51
163 | C4A U26C G33U U41A A57G U78C | 0.06
164 | C4U A5G G6A A13U U60A A64G | 0.51
165 | C4U A13C U69A | 0.78
166 | C4A A21G G24A U26C U69A U72G | 0.07
167 | C4G C11U U41A U49A U78C | 0.06
